Four substances from publication PMC9674701 can be followed below.

The chains behind the UniProt entries cited, without tags or fusion partners. Where a name states a change or a piece, a line headed by the entry shows the natural chain unless it says otherwise. A line that says so, or that is headed by a name, gives the form on record, which may keep a tag or linker. Residues count along the entry.
UniProt P02454: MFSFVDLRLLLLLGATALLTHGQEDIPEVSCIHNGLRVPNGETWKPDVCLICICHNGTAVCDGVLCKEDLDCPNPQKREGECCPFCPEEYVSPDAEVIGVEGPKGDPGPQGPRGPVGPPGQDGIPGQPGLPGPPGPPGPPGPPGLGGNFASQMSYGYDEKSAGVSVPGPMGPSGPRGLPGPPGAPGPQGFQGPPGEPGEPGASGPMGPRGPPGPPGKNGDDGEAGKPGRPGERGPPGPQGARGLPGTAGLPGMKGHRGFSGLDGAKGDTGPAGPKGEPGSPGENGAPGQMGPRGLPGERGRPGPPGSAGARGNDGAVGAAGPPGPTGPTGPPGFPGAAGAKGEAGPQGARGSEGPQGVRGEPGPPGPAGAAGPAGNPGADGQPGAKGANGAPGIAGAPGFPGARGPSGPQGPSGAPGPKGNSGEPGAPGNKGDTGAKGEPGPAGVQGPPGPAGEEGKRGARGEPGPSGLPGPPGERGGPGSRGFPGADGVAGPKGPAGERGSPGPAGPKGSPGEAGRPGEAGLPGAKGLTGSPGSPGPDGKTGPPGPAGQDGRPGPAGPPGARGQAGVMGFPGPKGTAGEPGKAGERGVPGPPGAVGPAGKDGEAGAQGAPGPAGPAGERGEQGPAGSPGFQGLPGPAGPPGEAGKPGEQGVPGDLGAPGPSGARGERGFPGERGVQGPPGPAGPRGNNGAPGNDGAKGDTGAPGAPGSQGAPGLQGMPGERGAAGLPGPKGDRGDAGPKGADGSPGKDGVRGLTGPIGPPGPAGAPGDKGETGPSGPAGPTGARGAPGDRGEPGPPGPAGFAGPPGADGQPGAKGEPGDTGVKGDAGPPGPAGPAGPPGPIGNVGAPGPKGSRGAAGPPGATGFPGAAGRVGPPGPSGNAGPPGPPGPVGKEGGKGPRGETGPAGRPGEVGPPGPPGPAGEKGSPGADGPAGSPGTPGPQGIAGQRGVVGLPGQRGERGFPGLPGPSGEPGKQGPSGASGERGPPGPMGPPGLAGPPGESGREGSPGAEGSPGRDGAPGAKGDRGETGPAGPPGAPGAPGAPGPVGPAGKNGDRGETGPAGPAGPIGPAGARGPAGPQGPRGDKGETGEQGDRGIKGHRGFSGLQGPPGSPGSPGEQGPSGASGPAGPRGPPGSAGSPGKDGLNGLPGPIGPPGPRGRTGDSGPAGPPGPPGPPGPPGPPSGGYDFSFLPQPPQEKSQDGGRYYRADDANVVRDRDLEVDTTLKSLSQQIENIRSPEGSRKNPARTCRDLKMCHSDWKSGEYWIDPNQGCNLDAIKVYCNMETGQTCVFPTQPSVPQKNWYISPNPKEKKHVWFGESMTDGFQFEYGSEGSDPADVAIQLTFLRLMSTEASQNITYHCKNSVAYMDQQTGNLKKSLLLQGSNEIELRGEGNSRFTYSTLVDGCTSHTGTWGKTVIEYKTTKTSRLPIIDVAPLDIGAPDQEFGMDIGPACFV
UniProt P02466: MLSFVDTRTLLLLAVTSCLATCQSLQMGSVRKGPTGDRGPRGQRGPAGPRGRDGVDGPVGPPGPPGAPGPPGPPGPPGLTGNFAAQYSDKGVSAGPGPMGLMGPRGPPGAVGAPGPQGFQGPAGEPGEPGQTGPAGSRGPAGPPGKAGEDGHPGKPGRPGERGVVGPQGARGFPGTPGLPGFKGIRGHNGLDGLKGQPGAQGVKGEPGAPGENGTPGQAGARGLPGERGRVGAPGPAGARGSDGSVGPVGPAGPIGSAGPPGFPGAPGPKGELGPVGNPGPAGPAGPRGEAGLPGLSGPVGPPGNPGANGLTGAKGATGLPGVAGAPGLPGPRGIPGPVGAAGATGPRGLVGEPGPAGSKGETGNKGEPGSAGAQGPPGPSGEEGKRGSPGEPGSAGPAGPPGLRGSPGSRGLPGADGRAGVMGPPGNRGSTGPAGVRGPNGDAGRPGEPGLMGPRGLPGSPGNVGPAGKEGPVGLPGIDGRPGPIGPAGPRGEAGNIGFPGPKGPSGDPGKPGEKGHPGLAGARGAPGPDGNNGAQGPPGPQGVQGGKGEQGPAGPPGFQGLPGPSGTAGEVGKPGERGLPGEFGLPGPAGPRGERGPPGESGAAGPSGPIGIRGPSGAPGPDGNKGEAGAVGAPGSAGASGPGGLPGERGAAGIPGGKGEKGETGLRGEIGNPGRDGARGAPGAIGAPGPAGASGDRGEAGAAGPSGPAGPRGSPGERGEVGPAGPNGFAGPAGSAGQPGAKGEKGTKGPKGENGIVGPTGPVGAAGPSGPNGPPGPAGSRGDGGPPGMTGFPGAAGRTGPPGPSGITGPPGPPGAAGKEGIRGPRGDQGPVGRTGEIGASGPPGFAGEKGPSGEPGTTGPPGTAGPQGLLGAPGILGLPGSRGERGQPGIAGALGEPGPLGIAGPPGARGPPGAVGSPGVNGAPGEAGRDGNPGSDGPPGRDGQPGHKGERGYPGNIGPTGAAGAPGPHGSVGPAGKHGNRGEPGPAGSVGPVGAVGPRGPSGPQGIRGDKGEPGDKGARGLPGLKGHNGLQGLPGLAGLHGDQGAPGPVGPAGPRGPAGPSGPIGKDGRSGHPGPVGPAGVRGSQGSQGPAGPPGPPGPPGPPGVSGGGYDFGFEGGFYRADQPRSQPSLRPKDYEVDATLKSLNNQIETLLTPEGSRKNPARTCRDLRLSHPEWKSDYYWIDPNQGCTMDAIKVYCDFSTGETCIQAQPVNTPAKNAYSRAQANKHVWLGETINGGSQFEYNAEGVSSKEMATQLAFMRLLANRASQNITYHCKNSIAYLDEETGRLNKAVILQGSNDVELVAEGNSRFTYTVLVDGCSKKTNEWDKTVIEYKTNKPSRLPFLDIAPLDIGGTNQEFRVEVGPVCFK
UniProt P02462: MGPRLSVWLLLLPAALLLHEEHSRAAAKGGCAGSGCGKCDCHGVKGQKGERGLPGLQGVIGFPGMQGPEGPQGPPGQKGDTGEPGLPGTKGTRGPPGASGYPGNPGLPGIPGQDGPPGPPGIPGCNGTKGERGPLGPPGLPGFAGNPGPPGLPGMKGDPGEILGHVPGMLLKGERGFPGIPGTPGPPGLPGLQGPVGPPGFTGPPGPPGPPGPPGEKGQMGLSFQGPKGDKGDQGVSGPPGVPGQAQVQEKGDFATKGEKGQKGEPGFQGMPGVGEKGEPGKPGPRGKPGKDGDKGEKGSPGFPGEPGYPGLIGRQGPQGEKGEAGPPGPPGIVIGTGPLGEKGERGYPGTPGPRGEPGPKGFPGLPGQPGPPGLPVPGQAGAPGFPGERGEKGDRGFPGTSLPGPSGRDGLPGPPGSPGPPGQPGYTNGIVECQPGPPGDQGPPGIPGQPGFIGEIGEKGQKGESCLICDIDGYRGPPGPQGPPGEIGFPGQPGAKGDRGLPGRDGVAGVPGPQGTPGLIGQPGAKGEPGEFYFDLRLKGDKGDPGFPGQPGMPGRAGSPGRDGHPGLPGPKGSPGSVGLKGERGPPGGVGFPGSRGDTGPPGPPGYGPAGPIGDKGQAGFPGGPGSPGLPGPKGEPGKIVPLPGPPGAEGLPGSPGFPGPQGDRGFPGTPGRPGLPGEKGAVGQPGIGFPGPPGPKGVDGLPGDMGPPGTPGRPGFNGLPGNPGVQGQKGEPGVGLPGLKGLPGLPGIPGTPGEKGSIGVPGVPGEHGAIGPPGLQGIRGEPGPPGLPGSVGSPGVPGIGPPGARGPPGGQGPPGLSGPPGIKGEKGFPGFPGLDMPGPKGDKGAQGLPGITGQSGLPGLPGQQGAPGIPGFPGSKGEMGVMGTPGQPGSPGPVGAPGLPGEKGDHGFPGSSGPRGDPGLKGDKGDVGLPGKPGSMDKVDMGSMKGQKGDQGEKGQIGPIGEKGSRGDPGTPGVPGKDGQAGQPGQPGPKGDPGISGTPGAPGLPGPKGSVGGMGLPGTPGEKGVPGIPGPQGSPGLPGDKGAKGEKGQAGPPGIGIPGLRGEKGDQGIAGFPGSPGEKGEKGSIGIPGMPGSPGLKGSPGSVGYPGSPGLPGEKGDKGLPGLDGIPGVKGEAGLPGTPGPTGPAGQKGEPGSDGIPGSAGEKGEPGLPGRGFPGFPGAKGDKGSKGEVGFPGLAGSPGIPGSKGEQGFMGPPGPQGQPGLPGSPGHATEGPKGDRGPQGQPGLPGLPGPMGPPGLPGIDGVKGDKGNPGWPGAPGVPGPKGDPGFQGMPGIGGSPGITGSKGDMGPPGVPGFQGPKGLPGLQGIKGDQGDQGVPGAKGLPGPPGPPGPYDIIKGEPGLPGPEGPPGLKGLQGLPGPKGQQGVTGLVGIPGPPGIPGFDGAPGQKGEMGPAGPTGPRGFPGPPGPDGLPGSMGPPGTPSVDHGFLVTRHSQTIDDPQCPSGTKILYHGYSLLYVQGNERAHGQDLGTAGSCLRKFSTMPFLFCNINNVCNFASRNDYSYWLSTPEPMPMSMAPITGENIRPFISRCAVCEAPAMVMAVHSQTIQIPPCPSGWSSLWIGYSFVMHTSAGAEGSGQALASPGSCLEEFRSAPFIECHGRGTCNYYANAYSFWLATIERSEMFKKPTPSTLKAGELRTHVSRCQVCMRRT
UniProt Q9H6X2: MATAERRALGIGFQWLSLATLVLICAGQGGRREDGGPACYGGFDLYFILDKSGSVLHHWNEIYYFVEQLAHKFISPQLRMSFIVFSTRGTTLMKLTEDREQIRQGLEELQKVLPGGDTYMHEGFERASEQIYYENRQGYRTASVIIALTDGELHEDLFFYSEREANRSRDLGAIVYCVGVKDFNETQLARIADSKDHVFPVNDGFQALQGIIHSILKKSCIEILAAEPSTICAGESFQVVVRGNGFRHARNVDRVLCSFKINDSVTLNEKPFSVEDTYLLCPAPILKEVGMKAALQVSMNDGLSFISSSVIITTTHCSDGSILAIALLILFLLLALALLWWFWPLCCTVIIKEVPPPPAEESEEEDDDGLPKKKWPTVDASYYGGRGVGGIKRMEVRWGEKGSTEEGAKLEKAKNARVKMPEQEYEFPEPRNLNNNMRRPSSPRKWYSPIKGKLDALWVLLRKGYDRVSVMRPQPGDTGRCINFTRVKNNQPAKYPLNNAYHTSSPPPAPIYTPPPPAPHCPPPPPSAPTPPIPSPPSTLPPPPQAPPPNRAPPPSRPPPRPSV
TEM8-D150A-AP (Q9H6X2, form named): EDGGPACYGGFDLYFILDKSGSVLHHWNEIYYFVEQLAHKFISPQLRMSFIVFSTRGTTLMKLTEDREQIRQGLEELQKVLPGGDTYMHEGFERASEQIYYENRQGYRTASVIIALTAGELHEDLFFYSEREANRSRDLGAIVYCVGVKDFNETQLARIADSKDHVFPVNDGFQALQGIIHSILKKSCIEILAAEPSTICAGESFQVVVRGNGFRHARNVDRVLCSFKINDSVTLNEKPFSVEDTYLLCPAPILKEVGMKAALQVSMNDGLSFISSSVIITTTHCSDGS
UniProt P05187, residues 23-506: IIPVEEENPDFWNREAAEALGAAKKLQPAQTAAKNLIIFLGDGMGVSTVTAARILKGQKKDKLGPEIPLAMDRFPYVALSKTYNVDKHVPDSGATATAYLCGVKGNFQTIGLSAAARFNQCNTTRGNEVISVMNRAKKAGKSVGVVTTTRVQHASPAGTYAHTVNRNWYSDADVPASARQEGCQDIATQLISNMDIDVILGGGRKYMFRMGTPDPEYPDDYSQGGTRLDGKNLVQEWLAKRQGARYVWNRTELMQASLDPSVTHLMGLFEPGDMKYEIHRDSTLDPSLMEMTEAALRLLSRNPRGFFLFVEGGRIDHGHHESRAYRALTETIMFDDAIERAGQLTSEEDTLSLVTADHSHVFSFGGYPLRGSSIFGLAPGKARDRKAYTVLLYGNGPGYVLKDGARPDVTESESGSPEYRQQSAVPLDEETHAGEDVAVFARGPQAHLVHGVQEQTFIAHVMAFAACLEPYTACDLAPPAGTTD

Results are given in words; binding and its absence hold for the method and conditions named. Some results given as binding are weak or reduced against the parent protein; the word gives no strength.

In test [1] the target is collagen I (Sigma, C3867) (UniProt P02454). The test can be described thus: cell binding assay on coated plates; 1 ug of ECM protein, PA or BSA coated on 96-well tissue culture plates; CHO or CHO-TEM8 cells, 25,000 cells/well, in Hams F12 with 10% FBS, 1 hour at 37 C; washed twice; bound cells measured with Alamar blue; only the target purified.
Test [2] concerns the target collagen VI (UniProt P12109). The description is as above.
The target of test [3] is T1, rat tail collagen I (rat) (UniProt P02454+P02466). The test can be described thus: ELISA; collagen I (fibrillar film, e.g. 200 ug/mL, neutralised in 50 mM Tris-HCl pH 8, 37 C 2 h), PA or other ECM proteins coated on plates; purified AP fusion proteins added in D-PBS with calcium, magnesium and 0.5% BSA, 4 C overnight; AP activity with PNPP at 405 nm; in later assays DMEM-F12/0.5% BSA/1.0% Tween 20 and HRP-anti-PLAP at 450 nm; both purified.

Test [4] deals with T1, rat tail collagen I (rat). The test can be described thus: ELISA; TEM8-AP on immobilised col1 in the absence or presence of 20 ug/mL of m830 anti-TEM8 antibody; both purified. A general note: In an ELISA, binding on a coated surface is turned into a signal by an enzyme label.
Another test concerns the target collagen IV (UniProt P02462). Nature of the test: ELISA; collagen I (fibrillar film, e.g. 200 ug/mL, neutralised in 50 mM Tris-HCl pH 8, 37 C 2 h), PA or other ECM proteins coated on plates; purified AP fusion proteins added in D-PBS with calcium, magnesium and 0.5% BSA, 4 C overnight; AP activity with PNPP at 405 nm; in later assays DMEM-F12/0.5% BSA/1.0% Tween 20 and HRP-anti-PLAP at 450 nm; both purified.

Test [5] has as its target collagen VI (UniProt P12109). Described as above.

With “TEM8 on TEM8 overexpressing CHO cells (CHO-TEM8), wild type (from UniProt Q9H6X2 33-564) (receptor)”, the binding entry (in test [1]; with collagen VI [2]) was “binds” each time.
With “TEM8-D150A-AP (from UniProt Q9H6X2 33-321) (receptor)”, the binding entry in test [3] is listed as “no binding”.
As for “alkaline phosphatase alone (AP) (from UniProt P05187 23-506) (enzyme)”, in test [3], the binding entry is listed as “no binding”.
Turning to “alkaline phosphatase-tagged TEM8 extracellular domain (TEM8-AP), wild type (from UniProt Q9H6X2 33-321) (receptor)”, the binding result is “binds” in test [4], “no binding” in the test with collagen IV, “binds” with collagen VI [5] and “binds” in test [3].
